Among the data in PubChem BioAssay AID463173 (ICCB-Longwood Screening Facility, Harvard Medical School, 2010) are survival values, retold here.

Screen size: about 52,000 compounds; about 1,700 (3.3%) were called active. No stated cut-off is given here; in the data, active means survival mostly below about 52% (no sharp cut-off); inactive means mostly above about 56%. The list shows a part of the results.

The assay deals with Wild type. Nature of the assay: S. aureus survival, RN4220 and DeltatarO strains – OD600, teichoic acid synthesis inhibitors, primary screen (AID 463173). The conditions noted are these: S. aureus RN4220 wild type/DeltatarO growth, OD600, 18 h, stronger effect = lower value, screened at 18.75 µg/mL (by protocol).
Regarding `Fc1cccc(-n2ncc3c2ncn2nc(COc4ccc(Cl)cc4)nc32)c1`, the survival is inactive: 115%.

In the case of `CCCC1=Nc2cc(C(=O)NCc3ccc(OC)cc3)ccc2Sc2ccc(C)cc21`, the survival is inactive: 94%. For `COc1ccc(C(C(=O)NC2CCCC2)N(Cc2ccc(C)cc2)C(=O)c2ccn[nH]2)cc1OC` (configuration not stated) the value was inactive: 103%; for `COc1ccc(-c2cc3nc(C)c(CCC(=O)Nc4ccccc4C(C)=O)c(C)n3n2)c(OC)c1`, inactive: 76%; for `COc1ccc(-n2c(=O)c3c(c4cc(OC)ccc4n3C)n(Cc3cccc(OC)c3)c2=O)cc1`, inactive: 81%. The figure for `O=C(CCC1N=C2c3ccccc3N=C(SCc3ccc(F)cc3)N2C1=O)NCc1ccc(F)cc1` (configuration not stated) is inactive: 59%; for `O=C(CCc1nc(CN2CCN(S(=O)(=O)c3ccc(Cl)cc3)CC2)no1)N1CCCCC1` it is inactive: 126%.

`Cc1cccc(Cn2c(SCc3ccc(C(=O)NCCc4ccccc4)cc3)nc3ccncc32)c1`: the survival is inactive: 82%. For `CCc1cccc(C)c1NC(=O)Cn1ccn(-c2cccc(OC)c2)c(=O)c1=O` the value was inactive: 84%; for `CCOc1ccc(-c2nc(CSCC(=O)N3CCN(c4ccc(F)cc4)CC3)c(C)o2)cc1`, inactive: 113%. In the case of `CCOc1ccc(C(=O)NCCn2cc(SCC(=O)Nc3ccc4c(c3)OCCO4)c3ccccc32)cc1`, the survival is inactive: 74%. For `Cc1nc2scc(C)n2c(=O)c1S(=O)(=O)Nc1ccc(N2CCOCC2)c(Cl)c1` the value was inactive: 78%; for `CCC(C(=O)Nc1cc(OC)cc(OC)c1)n1nc(-c2ccc(C)c(C)c2)ccc1=O` (configuration not stated), inactive: 87%; for `CN1CCc2c(sc3c2C(=O)NC(c2ccc(OC(=O)c4ccc(C(C)(C)C)cc4)cc2)N3)C1` (configuration not stated), inactive: 98%. The figure for `CCN(CC)C(=O)c1sc2c(c1C)c(=O)n(-c1ccc(Cl)c(Cl)c1)c(=O)n2Cc1ccccc1C#N` is inactive: 77%. For `COCCCNc1oc(/C=C/c2cc(OC)c(OC)c(OC)c2)nc1C#N` the value was inactive: 81%; for `COc1cc(NC(=O)Cn2c(=O)n(Cc3ccco3)c(=O)c3sc4ccccc4c32)cc(OC)c1`, inactive: 86%; for `Cc1ccccc1OCC(=O)OC1CCCN(C)C1` (configuration not stated), inactive: 90%.

With `Cc1cccc(NC(=O)CSc2ncc3c(n2)-c2ccccc2N(Cc2ccc(F)cc2)S3(=O)=O)c1C`, the survival is inactive: 74%. The figure for `CCC(C)NC(=O)c1cc(-c2cccc(OC)c2)on1` (configuration not stated) is inactive: 64%; for `Cc1ccc(C)c(N2CCN(C(=O)C3CCN(c4nc5ccc(C)cc5[nH]4)CC3)CC2)c1` it is inactive: 73%.

On to `Cc1ccc(N2CCN(C(=O)c3c(C)oc4ncn(CC(C)C)c(=O)c34)CC2)c(C)c1`, for which the survival was inactive: 92%. For `CN(C)c1ccc(-c2nc(-c3cc4cc(Cl)ccc4oc3=O)cs2)cc1` the value was inactive: 72%; for `Cc1ccc(Oc2c(C(F)(F)F)oc3c(CN4CCC(C)CC4)c(O)ccc3c2=O)cc1`, inactive: 66%. The figure for `CCc1cccc(NC(=O)CCC(=O)N2CCSc3ccccc32)c1` is inactive: 88%; for `Cc1cccc(CCNC(=O)c2ccc3c(c2)N(Cc2ccccc2F)C(=O)c2ccccc2S3)c1` it is inactive: 73%; for `Cc1cc(-c2ccc(C)c(S(=O)(=O)N3CCN(c4cccc(C(F)(F)F)c4)CC3)c2)on1` it is inactive: 91%. For `CCN(CC)C(=O)c1c(-c2ccccc2)c(-c2ccccc2)nn(C)c1=O` the value was inactive: 83%; for `CCc1ccc(C(=O)c2cn(CC(=O)Nc3cc(C)ccc3C)c3nc(C)ccc3c2=O)cc1`, inactive: 113%. On to `Cc1cc2ccccc2n1-c1ccc(C(=O)N2CCC(C(=O)NCc3ccc(Cl)cc3)CC2)s1`, for which the survival was inactive: 63%. In the case of `COc1ccccc1NC(=O)NC1(C(=O)N2CCCCC2)CCCCC1`, the survival was inactive: 103%. For `CC(=O)N1CCCc2cc(S(=O)(=O)N3CCC(C(=O)Nc4cccc(Cl)c4C)CC3)ccc21`, the survival is inactive: 71%. With `COc1ccc(N2CCN(C(=O)CCn3nc(C)c(S(=O)(=O)N4CCCC4)c3C)CC2)cc1`, the survival is inactive: 80%. For `O=C(CSc1nnc(-c2cccs2)o1)Oc1ccccc1` the value was inactive: 83%. The figure for `CC(/C=N/NC(=O)Cc1cccn1C)=C\c1ccco1` is inactive: 112%. The figure for `N#CC(=C1CCN(Cc2ccccc2)CC1)c1ccccc1` is inactive: 110%; for `CCN(CC)CCCNC(=O)c1ccc(-c2nc(CN3CCc4ccccc43)c(C)o2)cc1` it is inactive: 65%. With `O=C(CSc1nnc(-c2ccccc2)o1)c1cccc([N+](=O)[O-])c1`, the survival was inactive: 134%. Consider `COC(=O)c1cc(S(=O)(=O)N2CCN(c3cccc(C)c3)C(C)C2)cn1C` (configuration not stated), for which the survival was inactive: 76%.

As for `O=C(Cn1ncc2c3ccccc3n(Cc3ccc(Cl)cc3)c2c1=O)NCc1ccccn1`, the survival is inactive: 93%. The figure for `NC(=O)c1ccccc1NC(=O)c1ccc(-c2ccc(Br)cc2)o1` is inactive: 95%. Consider `CCc1ccc(-n2cnc3cc(C(=O)NCc4ccc(C)cc4)ccc32)cc1`, for which the survival is inactive: 65%. As for `CCOc1ccc(C(=O)Nc2ccc3nc(SCCOc4ccccc4)sc3c2)cc1`, the survival is inactive: 92%.

Regarding `CCN(CC)CCCNC(=O)c1ccc2c(=O)n(CCc3ccccc3)c(=O)[nH]c2c1`, the survival was inactive: 74%. The figure for `CC(=O)c1cccc(NC(=O)Cn2nc(C)n3cccc3c2=O)c1` is inactive: 109%; for `CCOC(=O)c1c(C)[nH]c(CCC(=O)NCc2ccc(CC)cc2)c1C` it is inactive: 72%; for `CCC(Sc1nc2cc(OC)c(OC)cc2c2nc(-c3ccccc3)nn12)C(=O)Nc1cccc(C)c1` (configuration not stated) it is inactive: 76%.

With `COc1ccc(NC(=O)C2=C(C)Nc3nc(SCc4ccccc4C)nn3C2c2cc(OC)c(O)c(OC)c2)cc1` (configuration not stated), the survival was inactive: 89%. Consider `Cc1ccc(-n2ncc(C(=O)NCc3cccs3)c2C2CCN(C(=O)OC(C)(C)C)CC2)c(C)c1`, for which the survival is inactive: 95%.

With `Cc1ccc(CSc2nnc(CCNC(=O)OC(C)(C)C)o2)cc1`, the survival is inactive: 138%. In the case of `O=C(NCc1ccccc1Cl)c1ccc(CSCc2ccccc2Cl)o1`, the survival is inactive: 66%. The figure for `COc1ccc(OC)c(NC(=O)CSc2nnc3ccc4ccccc4n23)c1` is inactive: 74%; for `COc1ccc(NC(=O)CCn2c(=O)c3cccn3c3cccnc32)c(OC)c1` it is inactive: 110%. The figure for `CCC(C(=O)NCc1ccccc1)n1nc(C)c2sc3ccccc3c2c1=O` (configuration not stated) is inactive: 88%; for `CCc1ccc(NC(=O)CCn2nc(-c3ccccc3OC)c3c(C)cc(C)nc32)cc1` it is inactive: 88%. For `COc1ccc(-c2noc(CC(=O)Nc3ccc(F)cc3F)n2)cc1` the value was inactive: 85%; for `Cc1ccc(-c2nnc(Nc3cccc(O)c3)c3ccccc23)cc1S(=O)(=O)N1CCOCC1`, inactive: 92%; for `COc1ccc(NC(=O)CSc2nnc(CNc3ccc(C)cc3C)o2)c(OC)c1`, inactive: 112%.

`COc1ccccc1OC(C)C(=O)Nc1ccc(-c2nc3ccccc3s2)cc1` (configuration not stated): the survival is inactive: 98%. Take `CC1(C)CC(CC(=O)O)(Cc2ccccc2)CCO1` (configuration not stated): the survival is inactive: 90%. For `CN(Cc1ccccc1)C(=O)Nc1ccc2c(c1)N(C)C(=O)c1ccccc1S2` the value was inactive: 104%. The figure for `c1ccc(Nc2c(-c3c[nH]c4ccccc34)nc3ccccn23)cc1` is inactive: 66%; for `COc1ccc(-c2cc(C(=O)OC(C)C(=O)c3ccccc3)c3cccc(Cl)c3n2)cc1` (configuration not stated) it is inactive: 71%. `Cc1ccc2nc(N3CCC(C(=O)N4CCN(c5cccc(Cl)c5)CC4)CC3)[nH]c2c1`: the survival is inactive: 74%.

`CCOCCCNC(=O)C(c1ccc(C)cc1)N(Cc1ccc2c(c1)OCO2)C(=O)c1ccc(NC(C)=O)cc1` (configuration not stated): the survival is inactive: 71%. For `CCC(C)NC(=O)c1ccccc1NC(=O)CN1C(=O)c2cccc3cccc1c23` (configuration not stated) the value was inactive: 67%; for `Cc1ccc(C2c3[nH]c4ccccc4c3CCN2C(=O)c2cccc(C)c2)cc1` (configuration not stated), inactive: 135%. `CC(C)Nc1ccc(-c2nc(-c3ccco3)no2)cc1[N+](=O)[O-]`: the survival was inactive: 117%. For `Cc1cccc(OCC(=O)Nc2ccc(Cl)c(-c3nc4ncccc4o3)c2)c1C` the value was inactive: 38%; for `COc1cc2cc(CNc3ccc(C)cc3)c(=O)n(CC(=O)Nc3ccc(F)cc3F)c2cc1OC`, inactive: 77%.

On to `COc1cc(C(=O)NCC(c2cccs2)S(=O)(=O)c2ccc(F)cc2)cc(OC)c1OC` (configuration not stated), for which the survival is inactive: 126%.

Take `CC(C)NC(=O)CN1C(=O)COc2ccc(S(=O)(=O)N3CCCCCC3)cc21`: the survival is inactive: 75%. For `CCOC(=O)c1c(C)[nH]c(CCC(=O)Nc2ccc(C)c(F)c2)c1C` the value was inactive: 70%. The figure for `Cc1cccc(NC(=O)c2nnn(CC(=O)Nc3ccc(C(C)C)cc3)c2N)c1C` is inactive: 93%; for `Cc1ccccc1Oc1ccc(-c2nc(N)nc(N)n2)cc1` it is inactive: 100%. On to `O=C(CSC1=NCCS1)NCc1ccco1`, for which the survival is inactive: 110%.

Consider `CCC(=O)N1CCc2cc(Br)cc(S(=O)(=O)CCC(=O)NCc3ccc(Cl)cc3)c21`, for which the survival is inactive: 96%. The figure for `Cc1nc(Oc2ccc(F)cc2Cl)c2oc3ccccc3c2n1` is inactive: 79%; for `CCOc1ccccc1NC(=O)CN(C)S(=O)(=O)c1ccc2nc(C)sc2c1` it is inactive: 83%. As for `CCOC(=O)Cc1nn(Cc2ccccc2)c(=O)c2ccccc12`, the survival is inactive: 118%.

As to `CC(C)Oc1ccc(C(=O)N(Cc2ccco2)c2ccccn2)cc1`, the survival was inactive: 92%. For `CSC1=NC2(CCN(C(=O)NC3CCCCC3)CC2)N=C1c1ccc(C)c(C)c1` the value was inactive: 71%; for `Cc1ccc(CNC(=O)CC(C)S(=O)(=O)c2cc3c(cc2C)NC(=O)CO3)cc1` (configuration not stated), inactive: 71%; for `Cc1ccc(NC(=O)CCc2nnc3n(C)c(=O)c4sccc4n23)cc1C`, inactive: 72%. The figure for `COc1ccc(Br)cc1CNC(=O)c1cc2n(n1)CCCN(Cc1ccc(C)cc1)C2=O` is inactive: 74%; for `O=C(Nc1sc2c(c1C(=O)NCc1ccco1)CCCC2)c1cc(=O)c2ccccc2o1` it is inactive: 88%; for `Cc1ccc(C)c(NC(=O)CN2C(=O)C(C)(C)c3ccccc32)c1` it is inactive: 76%.
